Assay results published in a compilation of properties of binary mixtures (doi:10.1021/acs.jced.0c00801).
Some of these densities may be calculated back from excess volumes.

Assay: xn = mol fraction of the nth substance listed
Conditions: 101 kPa

CC[n+]1ccn(C)c1.N#C[S-] + CCO
mass density [kg/m3]
Conditions	283.15 K	293.15 K	303.15 K	313.15 K	323.15 K
x1 = 0.0504	847.8	839.7	–	–	815.1
x1 = 0.1001	884.2	876.4	868.7	860.9	853
x1 = 0.2012	942.9	935.6	–	921	913.7
x1 = 0.3003	985.3	978.3	971.4	964.4	957.5
x1 = 0.3945	1018.1	1011.4	1004.7	998	991.3
x1 = 0.5007	1047.5	1041	1034.4	1027.9	1021.5
x1 = 0.6016	1069.4	1063.4	1057.4	–	1045
x1 = 0.7018	1087.2	1080.9	1074.6	–	–
x1 = 0.8045	–	1095.9	1089.6	1083.5	1077.4
x1 = 0.8971	–	–	1100.7	–	1088.6
x1 = 0.951	1119.2	1113	–	1100.8	–
x1 = 1	1124.5	1118.3	1112.2	–	1100.2

CCO + CC[n+]1ccn(C)c1.N#C[S-]
x2 = 0
Conditions	mass density [kg/m3]
283.15 K	798
313.15 K	772.1
323.15 K	763.2
